According to publication PMC4336329 (PLoS ONE, 2015):
Among all 310,000 compounds or so, about 14,000 (4.5%) showed an effect of 50% or more. Effects have a minus sign here. Some of the results follow.

These molecules were tested against human ether-à-go-go-related gene (hERG) potassium channel (human, UniProt Q12809) (assay: primary screen, population patch clamp on CHO cells stably expressing hERG).
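Also: peak tail current of the secondary pulse compared with the same well before compound.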

Chain of human ether-à-go-go-related gene (hERG) potassium channel (Q12809 whole entry, looked up): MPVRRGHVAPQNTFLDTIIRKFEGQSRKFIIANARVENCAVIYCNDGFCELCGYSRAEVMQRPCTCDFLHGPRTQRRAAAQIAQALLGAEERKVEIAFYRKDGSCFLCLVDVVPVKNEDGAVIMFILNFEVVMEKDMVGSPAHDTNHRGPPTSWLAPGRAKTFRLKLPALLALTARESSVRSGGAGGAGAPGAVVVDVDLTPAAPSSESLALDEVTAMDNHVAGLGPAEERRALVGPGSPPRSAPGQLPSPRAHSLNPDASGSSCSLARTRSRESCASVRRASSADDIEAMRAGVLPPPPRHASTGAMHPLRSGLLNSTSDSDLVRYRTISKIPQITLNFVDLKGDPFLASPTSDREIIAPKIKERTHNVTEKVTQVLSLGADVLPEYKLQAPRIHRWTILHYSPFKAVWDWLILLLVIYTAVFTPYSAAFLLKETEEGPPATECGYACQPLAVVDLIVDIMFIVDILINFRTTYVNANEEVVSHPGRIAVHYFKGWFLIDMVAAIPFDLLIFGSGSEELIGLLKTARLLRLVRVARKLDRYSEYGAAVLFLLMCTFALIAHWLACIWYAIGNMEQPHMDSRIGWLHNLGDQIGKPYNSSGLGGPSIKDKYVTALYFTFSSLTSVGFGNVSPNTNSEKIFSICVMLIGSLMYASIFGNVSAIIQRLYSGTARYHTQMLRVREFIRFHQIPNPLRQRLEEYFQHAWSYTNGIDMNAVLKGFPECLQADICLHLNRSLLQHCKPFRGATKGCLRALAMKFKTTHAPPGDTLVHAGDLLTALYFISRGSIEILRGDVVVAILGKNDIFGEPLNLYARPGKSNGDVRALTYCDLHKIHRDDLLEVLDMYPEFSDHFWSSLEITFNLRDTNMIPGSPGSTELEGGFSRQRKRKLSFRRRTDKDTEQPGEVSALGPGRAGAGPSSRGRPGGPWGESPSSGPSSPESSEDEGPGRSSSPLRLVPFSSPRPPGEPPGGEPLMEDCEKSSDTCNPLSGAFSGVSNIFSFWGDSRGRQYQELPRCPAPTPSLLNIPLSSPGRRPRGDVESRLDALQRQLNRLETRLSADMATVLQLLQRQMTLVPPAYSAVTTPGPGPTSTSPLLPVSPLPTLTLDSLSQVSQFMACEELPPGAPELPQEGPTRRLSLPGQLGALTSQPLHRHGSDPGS

SMILES	hERG current change (%, negative = inhibition) at 10uM [%]
Clc1ccc(-c2cc(-c3ccccn3)on2)c(Cl)c1	15.9
COc1ccccc1NC(=S)N=Nc1c(O)[nH]c2ccc(Br)cc12	-1.23
CCn1c(SCC#N)nc2c(c1=O)C1(CCCC1)Cc1ccccc1-2	2.38
CC(C)(C)c1ccc(C(=O)Nc2sc3c(c2C(=O)O)CCC3)cc1	20.3
CC(C)(CO)NS(=O)(=O)c1ccc2c(c1)oc(=O)c1cc(S(=O)(=O)NC(C)(C)CO)ccc12	-3.11
Cc1cc(C)cc(-n2ncc3c2CCCC3NC(=O)c2cc(C)n(C)n2)c1 (stereo not drawn)	8.12
O=C(O)c1cccc(Cn2c(Cl)c(/C=N/NC(=O)c3cccc(O)c3)sc2=O)c1	27.8
O=C(O)c1cc(Cl)c(Cl)cc1C(=O)Nc1cccnc1	-6.4
O=C(O)CCc1ccc(-c2cccs2)n1-c1ccc(C(=O)O)cc1	13.6
Cc1ccc(CNC(=O)c2ccc(NC3=NC4CS(=O)(=O)CC4S3)cc2)cc1 (stereo not drawn)	-1.11
Cc1cc2c(cc1C)-c1nnnn1C(C)(C)C2	15.2
C=CCNC(=O)CSc1nc2scc(-c3ccco3)c2c(=O)n1CC=C	-34.5
Cc1ccc(CNC(=O)C2CCN(S(=O)(=O)c3ccc4nc5c(c(C(=O)O)c4c3)CC(C)CC5)CC2)cc1 (stereo not drawn)	5.24
O=C(O)c1nc(-c2ccccc2)n(-c2ccc(Cl)cc2)n1	13.7
Cc1c(Cl)cccc1NC(=S)NCc1cccs1	1.06
CC1CCN(CCCNC(=O)C2CC(=O)N(CCc3ccccc3)C2)CC1 (stereo not drawn)	-37.1
Cc1ccc(N(CC(O)CN2C(=O)NC(C)(C)C2=O)S(=O)(=O)c2ccc([N+](=O)[O-])cc2)cc1 (stereo not drawn)	-32.7
O=C(CSc1nnc(NC(=O)C2CC2)s1)Nc1ccccc1Cl	15.3
CN(CC(=O)Nc1cccc(F)c1)C(=O)c1ccc(NC2CC2)c([N+](=O)[O-])c1	-68.5
Cc1cc(=O)oc2cc3c(cc12)OCCN3	4.94
O=C(CCN1CCOCC1)Nc1c(-c2ccccc2)c2cc(Br)ccc2[nH]c1=O	-11.9
O=c1c2ccsc2ncn1Cc1ccccc1F	5.25
O=S(=O)(Cc1cc(Cl)nc(-c2ccccc2)n1)c1ccccc1	8.9
Cc1ccc(N2C(=O)C(Cl)=C(N3CCOCC3)C2=O)c(C)c1	14.6
CS(=O)(=O)c1sc(C(=O)NC(=S)Nc2ccc(OC(F)(F)F)cc2)c2c1C=CCC2	9.25
Cc1ccc(OCCCC(=O)Nc2ccc(S(=O)(=O)Nc3cc(C)on3)cc2)cc1	3.91
CCN(CC)C1=NC(=[N+](CC)CC)c2ccccc21.[O-][Cl+3]([O-])([O-])[O-]	-11.6

SMILES	hERG current change (%, negative = inhibition) at 10uM [%]
O=C(O)C1[C@H]2C(=O)N(C3CCCC3)C[C@]23C=C[C@H]1O3 (stereo partly drawn)	-28.9
COc1ccc(-c2cc(=O)oc(-c3cccc(C)c3)n2)cc1	18.1
CCc1nc(-c2ccccc2O)n(-c2ccccc2)n1	8.76
O=C(NCCc1ccccc1Cl)c1cc(COc2ccc(F)cc2F)on1	7.59
CC(C)(C)C(=O)NCCN1C(=O)S/C(=C\c2ccc([N+](=O)[O-])cc2)C1=O	-22.1
Cc1ccccc1CS(=O)(=O)CC1(O)CCN(C(=O)c2cccc(C(F)(F)F)c2)CC1	3.8
COc1ccc(N2CCN(CCNC(=O)C3CCN(S(=O)(=O)c4cccs4)CC3)CC2)cc1	-50.7
Cc1ccc(NC(=O)c2cccs2)cc1[N+](=O)[O-]	3.32
O=C(NCCCN1CCOCC1)c1c(O)c2cc(Br)cc(Br)c2[nH]c1=O	-64.6
CN(Cc1ccccn1)Cc1nc(-c2ccc(Cl)cc2)no1	-14.6
Cc1ccccc1C1c2[nH]c3ccccc3c2CCN1CCCn1cccn1 (stereo not drawn)	-20.3
CCC(=NCc1ccco1)c1c(O)n(Cc2ccccc2)c(=O)[nH]c1=O	-29.7
COc1ccc(N2CCN(C(=O)c3ccc(CS(=O)(=O)c4ccc(OC)cc4)o3)CC2)cc1	-64.7
CC(=O)N(/N=C1/C(=O)Nc2ccccc21)c1ccccc1	27.3
CCN1CCN(C(=O)c2cc(S(=O)(=O)Nc3ccc(S(C)(=O)=O)cc3)ccc2Cl)CC1	14.2
CCCCS(=O)(=O)N1CCC(C(=O)NCC2CCCO2)CC1 (stereo not drawn)	15.3
CC(C)NC(=S)NC(c1ccccc1)(c1ccccc1)c1ccccc1	18.1
Cc1cccc(-n2ncc3c(N4CCC5(CC4)OCCO5)ncnc32)c1	8.75
CCc1cccc(CC)c1NC(=O)c1ccccc1CCc1ccccc1	9.55
CCCc1cc(=O)[nH]c(SC(CC)C(=O)Nc2ccccc2C#N)n1 (stereo not drawn)	-15
COc1cc(OC)cc(C(=O)N[C@H](C(=O)OCc2cc(=O)oc3cc(C)ccc23)C(C)C)c1	-19
O=C(CSc1nnnn1-c1ccccc1)CSc1nnnn1-c1ccccc1	-12.2
Cc1ccc(N2C(=O)CC(NNC(=O)Cc3ccc(F)cc3)C2=O)cc1Cl (stereo not drawn)	3.26
Cc1ccccc1OCC(=O)OCC(=O)Nc1ccc(S(N)(=O)=O)cc1	-6.13
COc1cc(/C=C(\C#N)C(=O)Nc2cccc3ncccc23)cc(OC)c1OC.Cl	9.48
O=C(CCN1C(=O)[C@@H]2Cc3ccccc3CN2C1=O)N[C@H](Cc1ccccc1)C(=O)O	7.87
CCN1CCN(c2ccc(S(=O)(=O)N3CCOCC3)cc2NC(=O)C(C)Oc2ccc(F)cc2)CC1 (stereo not drawn)	-57.4
